# In all, about 410,000 compounds went through this assay and about 6,400 (1.6%) were called active. The inconclusive results got no clear call from the source; some entries with a clear call stand among them for comparison. Calls come from the whole dose curve; as a rule, active = well fitted inhibition curve with a large enough effect; inconclusive = small, poorly fitted or top-dose-only effect; inactive = no such curve, though single readings can be large or run the other way. No potency is given beside an inconclusive call; the fits are too rough.
# Target: Glucagon-like peptide 1 receptor (Homo sapiens) (UniProt P43220)
# Assay: qHTS of GLP-1 Receptor Inverse Agonists (Inhibition Mode); note: nearly all actives have a fitted effect of over 55% in size
# Settings: HEK293 GLP-1R CRE-luciferase, luminescence, 24 h, GLP-1R form is constitutively active; activity change, negative = inhibition: at 38.3 µM (top of the series) unless noted
# In short: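 Cells are plated, allowed 12 hours at 37 deg C, then treated with compounds for 24 hr before luciferase detection reagent is added and luminescence is read after 12 min at room temperature. The HEK293 line carries constitutively active GLP-1R with a cAMP-responsive reporter.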
# % is set by controls: 0 for no effect and ±100 for the full control effect; potency is the fitted concentration of half-maximal effect; tags give direction and shape of the fitted curve.
# UniProt P43220, sequence (P43220 whole entry, looked up): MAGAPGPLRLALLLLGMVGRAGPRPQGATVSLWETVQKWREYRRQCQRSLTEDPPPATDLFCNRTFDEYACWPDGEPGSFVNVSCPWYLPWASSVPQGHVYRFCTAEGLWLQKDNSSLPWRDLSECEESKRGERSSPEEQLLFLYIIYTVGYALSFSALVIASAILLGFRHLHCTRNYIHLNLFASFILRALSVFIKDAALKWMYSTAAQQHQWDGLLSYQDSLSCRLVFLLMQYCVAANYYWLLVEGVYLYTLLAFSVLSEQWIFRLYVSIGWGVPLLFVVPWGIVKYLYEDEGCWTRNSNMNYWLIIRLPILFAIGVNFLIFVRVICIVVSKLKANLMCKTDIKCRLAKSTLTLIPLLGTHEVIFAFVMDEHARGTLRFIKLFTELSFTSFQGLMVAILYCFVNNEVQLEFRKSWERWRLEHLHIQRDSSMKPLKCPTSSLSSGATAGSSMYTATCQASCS
SMILES,Potency,"activity change, negative = inhibition"
COC(=O)C1=C(C)NC(=O)C1(Nc1nccs1)C(F)(F)F (stereo unspecified),inactive,
COC(=O)c1cc(S(=O)(=O)N(Cc2ccccc2)C(C)(C)C)c[nH]1,"inconclusive [inhibitor, partial curve, poor fit]",
COc1ccc(N2C(=O)N3[C@H](c4cccc(C)c4)[C@@H]4C(=O)N(Cc5ccccc5)C(=O)[C@@H]4[C@]3(Cc3ccccc3)C2=O)cc1,inactive,
Fc1cccc(F)c1/C=C/c1ccc2ccccc2n1,"inconclusive [inhibitor, single point]",
COc1oc(C(=O)NC2CCCCC2)c(-c2ccc(Cl)cc2)c1S(=O)(=O)c1ccccc1,"inconclusive [inhibitor, single point]",
Cc1ccc(Nc2nc(CSc3nnnn3-c3ccccc3)cs2)cc1,"inconclusive [inhibitor, single point]",
Cc1ccc(-c2nnc(Nc3ccc(O)cc3)c3ccccc23)cc1S(=O)(=O)NC(C)(C)CO,"inconclusive [inhibitor, single point]",
O=C(NCCc1ccccc1)C1CCN(Cc2cccc3ccccc23)CC1,"inconclusive [inhibitor, partial curve, poor fit]",
C/C(=N\Nc1nc(-c2ccccn2)nc2ccccc12)c1ccc(F)cc1,"inconclusive [inhibitor, partial curve, poor fit]",
CCC(C)NC(=S)Nc1ccc(F)cc1 (stereo unspecified),"inconclusive [inhibitor, single point]",
Cc1nn2c(C)c(C(=O)NCc3cccc(Br)c3)cnc2c1-c1ccccc1,inactive,
CC(C)(C)n1nnnc1C(c1cccs1)N(Cc1ccc(Cl)cc1)CC1CCCO1 (stereo unspecified),active: 5.01 µM,
O=C(Cc1ccc(Cl)cc1)Nc1cc(Cl)ccn1,"inconclusive [inhibitor, partial curve, poor fit]",
COc1ccc(C(=O)NC(C(=O)NCc2ccccc2OC)C(C)C)cc1 (stereo unspecified),inactive,
Cc1cccc(Oc2cc(NC(=O)Cn3cnc([N+](=O)[O-])n3)cc([N+](=O)[O-])c2)c1,"inconclusive [inhibitor, partial curve, poor fit]",
CC1CN(C(=O)COC(=O)c2ccc(Cl)c(S(=O)(=O)N3CCCCC3)c2)CC(C)O1 (stereo unspecified),inactive,
O=C(O)c1ccc(N/N=C/c2ccc(C(F)(F)F)cc2)cc1,"inconclusive [inhibitor, partial curve, poor fit]",
CCOc1ccccc1NC(=O)CN(c1cc(C)cc(C)c1)S(=O)(=O)c1c(C)nn(C)c1C,"inconclusive [inhibitor, single point]",
Cc1cc(C)c(Cn2cnc3nc4c(cc3c2=O)CCCC4)c(C)c1,"inconclusive [inhibitor, partial curve, poor fit]",
Cc1cc(/C=C2/NC(=O)NC2=O)c(C)n1-c1sc2c(c1C#N)CCCC2,"inconclusive [inhibitor, partial curve, poor fit]",
COc1ccc(-c2c[n+](CC(=O)N3c4ccccc4Sc4ccccc43)c3n2CCC3)cc1,"inconclusive [inhibitor, partial curve, poor fit]",

SMILES,Potency,"activity change, negative = inhibition"
COc1cccc(NC(=O)C2(C)CCN2C(=O)CCc2ccc(Cl)cc2Cl)c1 (stereo unspecified),"inconclusive [inhibitor, partial curve, poor fit]",
O=C(Nc1ccc(NC(=O)c2cccs2)cn1)c1ccco1,"inconclusive [inhibitor, single point]",
O=C(CN1C(=O)c2ccccc2Sc2ncccc21)Nc1cccc(C(F)(F)F)c1,"inconclusive [inhibitor, single point]",
C/C(=N\OC(=O)NC1CCCCC1)c1sc(-c2ccccc2)nc1C,"inconclusive [inhibitor, single point]",
COc1ccc(NC(=O)C2CCCCN2S(=O)(=O)c2ccc(F)cc2)cc1 (stereo unspecified),"inconclusive [inhibitor, partial curve, poor fit]",
COc1ccc(Nc2cc(C)c3cc(NC(=O)COc4cccc(C)c4)ccc3n2)cc1,active: 10 µM,
Nc1nc(Nc2ccc(Cl)cc2)nc2ccccc12,"inconclusive [inhibitor, full curve, poor fit]",
COC(=O)c1cc(C)nc(Sc2ccccc2N)n1,"inconclusive [inhibitor, single point]",
COc1ccc(S(=O)(=O)N2CCCC2CNC(=O)C(=O)Nc2ccc(F)cc2)cc1 (stereo unspecified),"inconclusive [inhibitor, single point]",
CC(=O)c1ccc(NS(=O)(=O)c2ccc3[nH]c(=O)[nH]c3c2)cc1,inactive,
Oc1ccc(C[C@H]2CN([C@@H](Cc3ccc(O)cc3)CN3CCC[C@@H]3CN3C(=S)NC[C@@H]3Cc3ccccc3)C(=S)N2CC2CCCCCC2)cc1,"inconclusive [inhibitor, full curve, poor fit]",
COc1ccc(-n2c(SCC(=O)Nc3ccc4c(c3)OCO4)nc3c([nH]c4ccccc43)c2=O)cc1,inactive,
COc1ccc(-c2noc(CSc3nc4ccccc4c(=O)n3-c3ccc(C)cc3)n2)cc1,"inconclusive [inhibitor, partial curve]",
COCC(C)n1c(C)cc(C(=O)CN2c3cccc4cccc(c34)S2(=O)=O)c1C (stereo unspecified),"inconclusive [inhibitor, single point]",
COc1ccc(CC2(CO)COc3ccccc3C2=O)cc1 (stereo unspecified),"inconclusive [inhibitor, partial curve, poor fit]",
CCOc1cc(C(=O)Nc2ccc3nc(N4CCN(C)CC4)cc(C)c3c2)cc(OCC)c1OCC,"inconclusive [inhibitor, partial curve]",
O=C(CCc1ccccc1)Nc1cccc([N+](=O)[O-])c1,"inconclusive [inhibitor, single point]",
CCCCn1c(=O)c2ccccc2n2c(=S)[nH]nc12,inactive,
CC(C)(C)[C@H]1C=C(C(=O)N2CCN(Cc3ccc4c(c3)OCO4)CC2)O[C@@H](OCc2ccc(CO)cc2)C1,"inconclusive [inhibitor, partial curve, poor fit]",
CC1CCCCN1C(=O)c1cc2ccccc2cc1O (stereo unspecified),"inconclusive [inhibitor, partial curve]",
Cc1cccc(C)c1NC(=S)/N=C/N(C)C,,inactive: -24.2% [at 7.66 µM]

SMILES,Potency,"activity change, negative = inhibition"
Nc1nc(SCc2ccccc2)[nH]c(=O)c1-c1ccccc1,inactive,
COc1ccc(-c2noc(COc3ccc(C)cc3C)n2)cc1OC,"inconclusive [inhibitor, single point]",
CCNS(=O)(=O)c1ccc(NC(=O)Cc2ccc(F)cc2)cc1,"inconclusive [inhibitor, single point]",
CCOc1ccccc1NC(=O)c1ccccc1-c1nc(-c2ccccc2OC)no1,"inconclusive [inhibitor, full curve]",
Cc1ccc(CN2C(=O)CSC2c2ccccc2F)cc1 (stereo unspecified),active: 10 µM,
Cc1ccc([C@H]2C(C(=O)O)=CC[C@@H](c3ccc(Cl)cc3)N2S(=O)(=O)c2ccccc2C)cc1,"inconclusive [inhibitor, partial curve, poor fit]",
CCOC(=O)c1scc(-c2ccc(C)cc2)c1S(=O)(=O)N1CCN(c2ccccc2)CC1,"inconclusive [inhibitor, single point]",
COc1cccc(/C=C2\Sc3ccc(C(=O)NCC4CCCO4)cc3N(C)C2=O)c1 (stereo unspecified),"inconclusive [inhibitor, single point]",
O=C(Nc1cccc(-c2cccc(F)c2)c1)C1CCN(Cc2ccc(CO)o2)CC1,"inconclusive [inhibitor, partial curve, poor fit]",
CCOc1ccc(C(=O)CCC(=O)Nc2cccc(S(=O)(=O)N3CCCCC3)c2)cc1,"inconclusive [inhibitor, partial curve, poor fit]",
CC1CCCC(C)N1CCCNC(=O)c1nn(C)c2c1CSc1ccccc1-2 (stereo unspecified),"inconclusive [inhibitor, partial curve, poor fit]",
Cc1ccccc1NC(=O)C1CCCN(C(=O)Nc2ccc(F)cc2)C1 (stereo unspecified),"inconclusive [inhibitor, full curve, poor fit]",
COc1ccc(/C=C(\C)C(=O)c2c(C)cc(C)[nH]c2=O)cc1,"inconclusive [inhibitor, partial curve]",
Cc1ccccc1NC1=C(Cl)C(=O)OC1OC(C)C (stereo unspecified),"inconclusive [inhibitor, partial curve, poor fit]",
COc1cccc(-c2noc(C3CCCN(C(=O)c4ccc(F)cc4F)C3)n2)c1 (stereo unspecified),"inconclusive [inhibitor, single point]",
O=C(c1cccc(C(=O)N(c2ccccn2)C2CCCCC2)c1)N(c1ccccn1)C1CCCCC1,"inconclusive [inhibitor, partial curve, poor fit]",
O=C(c1cccc(S(=O)(=O)N2CCc3ccccc32)c1)N1CCc2ccccc2C1,"inconclusive [inhibitor, partial curve, poor fit]",
CCC(C)NC(=O)NC1C(NC(=O)NC(C)CC)N(C)C(=O)N1C (stereo unspecified),inactive,
O=C(CN1C2=NCCN2c2ccccc21)c1ccc2c(c1)OCO2,"inconclusive [inhibitor, single point]",

# Source: PubChem BioAssay AID624417 (National Center for Advancing Translational Sciences (NCATS), 2012)
